# In the supplement of paper PMC8183993:
# “And” between values parts separate entries of the source, which are not always exact repeats. Equal entries are not always repeated. Structures can show the parent of a compound that is named as a salt. ± gives the standard deviation of the averaged measurements. Whole data set: some 3,100 compounds, median “mean cytoplasmic OPP incorporation (global translation) relative to DMSO” near 100, cut for the lowest 2% near 56. This is one part of the list.
# Test system: U2OS
# Test: mean cytoplasmic OPP incorporation (global translation) relative to DMSO (% of DMSO); higher = more protein synthesis
# Settings: 10 µM; 24 h
# Experimental: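 Primary image-based screen in U2OS cells: compounds at 10 uM for 24 h, then a 1 h o-propargyl-puromycin (OPP) pulse, click labelling, and high-throughput microscopy. Mean cytoplasmic OPP intensity and nuclei count were normalised to DMSO wells within each plate (DMSO = 100) and averaged over triplicate plates.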
row,Compound,mean cytoplasmic OPP incorporation
1,O=C1NC(=O)/C(=C/c2cccc(C(F)(F)F)c2)S1,100.9 ± 0.89
2,Cc1cc(O)c2c(c1)C(=O)c1cc(O)cc(O)c1C2=O [Emodin],99.3
3,Cn1cc(-c2ccc3nnc(Sc4ccc5ncccc5c4)n3n2)cn1,105
4,Clc1ccc(Nc2nnc(Cc3ccncc3)c3ccccc23)cc1 [Vatalanib],125
5,Clc1ccc(Nc2nnc(Cc3ccncc3)c3ccccc23)cc1 [Vatalanib dihydrochloride (PTK787)],101
6,COC(=O)c1ccc2c(C(=Nc3ccc(N(C)C(=O)CN4CCN(C)CC4)cc3)c3ccccc3)c(O)[nH]c2c1 [BIBF1120 (Vargatef)],96.9
7,CCOC(=O)[C@H](CCc1ccccc1)N[C@@H](C)C(=O)N1Cc2cc(OC)c(OC)cc2C[C@H]1C(=O)O [Moexipril hydrochloride],107
8,FC(F)(F)c1cccc(-c2noc(-c3cc(-c4ccccc4)c(C(F)(F)F)s3)n2)c1,107
9,CN1CCC(OC(c2ccccc2)c2ccccc2)CC1 [Diphenylpyraline hydrochloride],96.2
10,C/C=C1\[C@H]2C=C(C)C[C@]1(N)c1ccc(=O)[nH]c1C2 [(-)-Huperzine A],102
11,CN1CCN(C2CCN(C(=O)Nc3cc(Oc4ccc(NC(=O)C5(C(=O)Nc6ccc(F)cc6)CC5)c(F)c4)ccn3)CC2)CC1 [Golvatinib (E7050)],115 ± 4.1
12,O=C1C(SCCO)=C(SCCO)C(=O)c2ccccc21,71.3 and 55.3
13,Cc1cc2c(F)c(Oc3ncnn4cc(OC[C@@H](C)O)c(C)c34)ccc2[nH]1,76.4 ± 7
14,COc1cc(/C=C/C(=O)CC(=O)/C=C/c2ccc(O)c(OC)c2)ccc1O [Curcumin],96.2 ± 6
15,NCC[C@H](O)C(=O)N[C@@H]1C[C@H](N)[C@@H](O[C@H]2O[C@H](CN)[C@@H](O)[C@H](O)[C@H]2O)[C@H](O)[C@H]1O[C@H]1O[C@H](CO)[C@@H](O)[C@H](N)[C@H]1O [Amikacin sulfate],102
16,NCC[C@H](O)C(=O)N[C@@H]1C[C@H](N)[C@@H](O[C@H]2O[C@H](CN)[C@@H](O)[C@H](O)[C@H]2O)[C@H](O)[C@H]1O[C@H]1O[C@H](CO)[C@@H](O)[C@H](N)[C@H]1O [Amikacin hydrate],93.3 ± 8.7
17,COc1ccc(CCN(C)CCCOc2ccc(S(=O)(=O)c3c(C(C)C)c4ccccc4n3C)cc2)cc1OC,110
18,CCCCCCN(CCCCCC)C(=O)Cc1c(-c2ccc(Cl)cc2)[nH]c2ccc(Cl)cc12,104
19,O=C1c2cccc3c2[C@H](CCC3)CN1[C@@H]1CN2CCC1CC2 [Palonosetron HCl],95.7
20,C/C(=N\NC(=O)C1C(=O)NCC1c1ccccc1)c1cccc(Br)c1 (stereo not given),102
21,NCCCCCCCCCCNS(=O)(=O)c1cccc2c(Cl)cccc12 [A-7 hydrochloride],115
22,Cn1cnc([N+](=O)[O-])c1Sc1ncnc2[nH]cnc12 [Azathioprine],87.2
23,"Cn1cnc([N+](=O)[O-])c1Sc1ncnc2[nH]cnc12 [Azathioprine (Azasan, Imuran)]",97.5
24,CC(=O)Oc1cc2c(s1)CCN(C(C(=O)C1CC1)c1ccccc1F)C2 (stereo not given) [Prasugrel (Effient)],103
25,CC(C)C(=O)Nc1ccc([N+](=O)[O-])c(C(F)(F)F)c1 [Flutamide],80.2

row,Compound,mean cytoplasmic OPP incorporation
1,CCC(=O)NC1CCc2cccc(OC)c2C1 (stereo not given),101
2,OCCN1C[C@H](O)[C@@H](O)[C@H](O)[C@H]1CO [Miglitol (Glyset)],101
3,OCCN1C[C@H](O)[C@@H](O)[C@H](O)[C@H]1CO [Miglitol],96.6
4,Cc1c(CCOc2ccc(C(=O)O)cc2)c2cc(Cl)ccc2n1C(c1ccccc1)c1ccccc1,105
5,S=C(NCc1ccc2c(c1)OCO2)N1CCN(c2ncnc3c2oc2ccccc23)CC1 [Amuvatinib (MP-470)],115
6,N[C@@H](Cc1cc(-c2ccc(Cl)cc2Cl)cc(CP(=O)(O)O)c1O)C(=O)O,94.9
7,CC1(C)CCC2=C(O1)c1ccccc1C(=O)C2=O,110
8,CC(=O)OCC[N+](C)(C)C [Acetylcholine chloride],119
9,COC(=O)C1=C(C)NC(C)=C(C(=O)OC(C)C)C1c1cccc2nonc12 (stereo not given) [Isradipine],105 ± 7.9
10,O=C1OC(OC(=O)c2cccnc2Nc2cccc(C(F)(F)F)c2)c2ccccc21 (stereo not given) [Talniflumate],95.8
11,Cn1c(Nc2ccc(C(F)(F)F)cc2)nc2cc(Oc3ccnc(-c4ncc(C(F)(F)F)[nH]4)c3)ccc21,94.5
12,COc1cc(OC)c(C(=O)CCCCN2CCC3(CC2)NC(=O)NC3=O)cc1NS(=O)(=O)c1ccc(C(F)(F)F)cc1,129
13,C[C@H](CCC(=O)O)[C@H]1CC[C@H]2[C@@H]3CC[C@@H]4C[C@H](O)CC[C@]4(C)[C@H]3CC[C@]12C [Lithocholic acid],97.6 ± 4.3
14,N[C@@H](CSCCCO)C(=O)O [Fudosteine],96.9
15,CC(=O)SCC(Cc1ccccc1)C(=O)NCC(=O)OCc1ccccc1 (stereo not given) [Racecadotril],112
16,O=C(/C=C/N1C[C@H]2C[C@@H]1CN2c1ccccn1)c1ccccc1O,113
17,CC1COc2c(N3CCN(C)CC3)c(F)cc3c(=O)c(C(=O)O)cn1c23 (stereo not given) [Ofloxacin],96.3
18,O=C(O)CCCC[C@@H]1SC[C@@H]2NC(=O)N[C@@H]21 [Biotin (Vitamin B7)],103
19,O=C(O)CCCC[C@@H]1SC[C@@H]2NC(=O)N[C@@H]21 [Biotin],104
20,COCC(=O)Nc1c(I)c(C(=O)NCC(O)CO)c(I)c(C(=O)N(C)CC(O)CO)c1I (stereo not given) [Iopromide],100
21,"C[C@@]1(O)CCOC(=O)C1 [Mevalonic-D, L acid lactone]",99.4
22,CCOC(=O)Nc1ccc(NCc2ccc(F)cc2)nc1N [Flupirtine maleate],114
23,CC(C)Cc1ccc(C(C)C(=O)O)cc1 (stereo not given) [Ibuprofen Lysine (NeoProfen)],98
24,CN(C(=O)c1c(O)c2ccccc2n(C)c1=O)c1ccccc1 [Linomide],97.1
25,Nc1nc2[nH]cc(CCc3ccc(C(=O)N[C@@H](CCC(=O)O)C(=O)O)cc3)c2c(=O)[nH]1 [Pemetrexed (Alimta)],91.5
